Experimental data as given in the supplement of paper PMC4967469.

Columns and labels:
Experiment in all cases: Viability of human cancer cell lines after 72 h of drug (GDSC screen)
FTI-277 = compound: COC(=O)[C@H](CCSC)NC(=O)c1ccc(NC[C@@H](N)CS)cc1-c1ccccc1 [FTI-277]; conditions: top dose 1.024 µM; top dose inferred
Procedure: (§1)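 Human cancer cell lines in 384-well plates, medium with 10% serum, drug for 72 h over a 256-fold dose range (nine 2-fold or five 4-fold steps up to the top dose). Adherent lines were fixed and stained with the nucleic acid dye Syto60, suspension lines read with resazurin; signal relative to control wells, capped at 0 and 100%. One two-parameter sigmoid per drug and line, fitted in a mixed model over all curves with the slope shared within a line.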

YM155 = compound: COCC[n+]1c2c(n(Cc3cnccn3)c1C)C(=O)c1ccccc1C2=O [YM155]; conditions: top dose 5.12 µM
Procedure: as §1

SB-715992 = compound: Cc1ccc(C(=O)N(CCCN)[C@@H](c2nc3cc(Cl)ccc3c(=O)n2Cc2ccccc2)C(C)C)cc1 [SB-715992]; conditions: top dose 0.128 µM; top dose inferred
Procedure: as §1

JQ1 = compound: Cc1sc2c(c1C)C(c1ccc(Cl)cc1)=N[C@@H](CC(=O)OC(C)(C)C)c1nnc(C)n1-2 [JQ1]
Procedure: as §1

AMG-706 = compound: CC1(C)CNc2cc(NC(=O)c3cccnc3NCc3ccncc3)ccc21 [AMG-706]; conditions: top dose 2 µM; top dose inferred
Procedure: as §1

OSI-906 = compound: C[C@]1(O)C[C@@H](c2nc(-c3ccc4ccc(-c5ccccc5)nc4c3)c3c(N)nccn32)C1 [OSI-906]; conditions: top dose 2.56 µM; top dose inferred
Procedure: as §1

Docetaxel = compound: CC(=O)O[C@@]12CO[C@@H]1C[C@H](O)[C@@]1(C)C(=O)[C@H](O)C3=C(C)[C@@H](OC(=O)[C@H](O)[C@@H](NC(=O)OC(C)(C)C)c4ccccc4)C[C@@](O)([C@@H](OC(=O)c4ccccc4)[C@H]21)C3(C)C [Docetaxel]; conditions: top dose 0.0125 µM
Procedure: as §1

JNJ-26854165 = compound: c1ccc2c(CCNc3ccc(Nc4ccncc4)cc3)c[nH]c2c1 [JNJ-26854165]; conditions: top dose 10 µM
Procedure: as §1

JNK Inhibitor VIII = compound: CCOc1nc(NC(=O)Cc2cc(OC)ccc2OC)cc(N)c1C#N [JNK Inhibitor VIII]; conditions: top dose 10 µM; top dose inferred
Procedure: as §1

Belinostat = compound: O=C(/C=C/c1cccc(S(=O)(=O)Nc2ccccc2)c1)NO [Belinostat]; conditions: top dose 20 µM; top dose inferred
Procedure: as §1

NSC-207895 = compound: CN1CCN(c2ccc([N+](=O)[O-])c3no[n+]([O-])c23)CC1 [NSC-207895]; conditions: top dose 20 µM; top dose inferred
Procedure: as §1

[1] = top dose 1 µM, screen: GDSC drug entry 1218, top dose inferred
[2] = top dose 2.56 µM, screen: GDSC drug entry 163

Cell Line | AUC (FTI-277) | pIC50 (FTI-277) | AUC (YM155) | pIC50 (YM155) | AUC (SB-715992) | pIC50 (SB-715992) | AUC (JQ1; [1]) | pIC50 (JQ1; [1]) | AUC (JQ1; [2]) | pIC50 (JQ1; [2]) | AUC (AMG-706) | pIC50 (AMG-706) | AUC (OSI-906) | pIC50 (OSI-906) | AUC (Docetaxel) | pIC50 (Docetaxel) | AUC (JNJ-26854165) | pIC50 (JNJ-26854165) | AUC (JNK Inhibitor VIII) | pIC50 (JNK Inhibitor VIII) | AUC (Belinostat) | pIC50 (Belinostat) | AUC (NSC-207895) | pIC50 (NSC-207895)
IPC-298 (melanoma, adherent) | 0.963 | < 5.99 | 0.029 | > 7.70 | 0.955 | < 6.89 | 0.708 | 6.62 | 0.729 | 6.15 | 0.975 | < 5.70 | 0.959 | < 5.59 | 0.645 | 8.71 | 0.804 | 5.31 | 0.986 | < 5.00 | 0.316 | 6.41 | 0.791 | 5.05
JHH-1 (liver, adherent) | 0.984 | < 5.99 | 0.035 | > 7.70 | 0.958 | < 6.89 | 0.977 | < 6.00 | 0.558 | 6.63 | 0.983 | < 5.70 | 0.985 | < 5.59 | 0.803 | 8.16 | 0.88 | < 5.00 | 0.984 | < 5.00 | 0.095 | > 7.11 | 0.8 | 4.97
JHH-4 (liver, adherent) | 0.981 | < 5.99 | 0.674 | 6.01 | 0.985 | < 6.89 | 0.975 | < 6.00 | 0.851 | 5.71 | 0.97 | < 5.70 | 0.96 | < 5.59 | 0.958 | < 7.90 | 0.887 | < 5.00 | 0.984 | < 5.00 | 0.289 | 6.50 | 0.919 | < 4.70
JHU-011 (head and neck, adherent) | 0.936 | < 5.99 | 0.024 | > 7.70 | 0.634 | 7.73 | 0.984 | < 6.00 | 0.639 | 6.41 | 0.97 | < 5.70 | 0.844 | 5.75 | 0.364 | 9.48 | 0.835 | 5.19 | 0.947 | < 5.00 | 0.341 | 6.34 | 0.881 | < 4.70
JHU-022 (head and neck, adherent) | 0.973 | < 5.99 | 0.513 | 6.46 | 0.955 | < 6.89 | 0.951 | < 6.00 | 0.953 | < 5.59 | 0.955 | < 5.70 | 0.922 | < 5.59 | 0.63 | 8.71 | 0.852 | < 5.00 | 0.924 | < 5.00 | 0.699 | 5.27 | 0.982 | < 4.70
JIMT-1 (breast, adherent) | 0.94 | < 5.99 | 0.118 | > 7.70 | 0.841 | 7.00 | 0.967 | < 6.00 | 0.798 | 5.88 | 0.977 | < 5.70 | 0.977 | < 5.59 | 0.529 | 9.03 | 0.866 | < 5.00 | 0.962 | < 5.00 | 0.638 | 5.51 | 0.962 | < 4.70
K2 (melanoma, adherent) | 0.975 | < 5.99 | 0.143 | > 7.70 | 0.949 | < 6.89 | 0.974 | < 6.00 | 0.84 | < 5.59 | 0.982 | < 5.70 | 0.95 | < 5.59 | 0.92 | < 7.90 | 0.904 | < 5.00 | 0.982 | < 5.00 | 0.712 | 5.22 | 0.971 | < 4.70
KMH-2 (thyroid, adherent) | 0.968 | < 5.99 | 0.542 | 6.39 | 0.755 | 7.41 | 0.983 | < 6.00 | 0.521 | 6.74 | 0.99 | < 5.70 | 0.83 | 5.86 | 0.58 | 8.90 | 0.922 | < 5.00 | 0.984 | < 5.00 | 0.806 | 5.05 | 0.942 | < 4.70
KMRC-1 (kidney, adherent) | 0.927 | < 5.99 | 0.074 | > 7.70 | 0.987 | < 6.89 | 0.982 | < 6.00 | 0.755 | 6.04 | 0.987 | < 5.70 | 0.979 | < 5.59 | 0.957 | < 7.90 | 0.858 | 5.05 | 0.978 | < 5.00 | 0.468 | 5.99 | 0.908 | < 4.70
KON (head and neck, adherent) | 0.7 | 6.64 | 0.412 | 6.73 | 0.983 | < 6.89 | 0.982 | < 6.00 | 0.728 | 6.15 | 0.951 | < 5.70 | 0.848 | 5.73 | 0.415 | 9.34 | 0.77 | 5.43 | 0.957 | < 5.00 | 0.826 | 4.93 | 0.986 | < 4.70
KP-3 (pancreas, adherent) | 0.979 | < 5.99 | 0.313 | 7.07 | 0.752 | 7.30 | 0.942 | < 6.00 | 0.821 | 5.73 | 0.924 | < 5.70 | 0.859 | < 5.59 | 0.881 | < 7.90 | 0.942 | < 5.00 | 0.909 | < 5.00 | 0.58 | 5.67 | 0.946 | < 4.70

pIC50: −log10 of the molar value. A lower IC50 marks a more sensitive line; fits outside the tested doses are given as limits. AUC sums up the same curve from the lowest dose to the 256-fold higher top dose: 1 means no effect, lower means more sensitive. For part of these data: Any top dose called inferred is not printed in the source and was worked back from the curve model. For part of these data: Where an entry number is given, a second screen of the drug exists; the two often differ.
